Experimental data as given in PubChem BioAssay (Tox21).
“And” between values parts separate entries of the source, which are not always exact repeats. Identical values can stand only once. The inconclusive results got no clear call from the source; some entries with a clear call stand among them for comparison. Potencies beside an inconclusive call are fits to weak or partial responses and may not hold up. More than one record can exist for a structure, and the calls need not agree. The source made the active and inactive calls. Calls come from the whole dose curve; as a rule, active = well fitted activation curve with a large enough effect in the repeat runs; inconclusive = weak or mixed curves; inactive = flat fitted curve, though single readings scatter.

Test: A CellTox Green Cytotoxicity Assay to monitor cytotoxicity in HepG2 cells - 32 hour (AID 1224883); note: nearly all actives have a fitted effect of over 50% in size
Details: CellTox Green fluorescence; series mostly up to 76.8 µM
From the text: National Center for Advancing Translational Sciences [NCATS]
NIH Chemical Genomics Center [NCGC]
U.S. Environmental Protection Agency [EPA]
National Institutes of Environmental Health Sciences [NIEHS]
National Toxicology Program [NTP]
Cell-based models are critical for drug discovery. Determining the natural cytotoxic effects resulting from test compounds is an essential research activity. A CellTox Green Cytotoxicity Assay to monitor cytotoxicity in real time of continues cell culture during 40 hours of the compound treatment was used to screen Tox21 10K library compounds in HepG2 cells. CellTox Green Cytotoxicity Assay is a nonlytic, homogeneous, biofluorescent method to measure cytotoxicity in cell culture after experimental manipulation. The assay system uses a proprietary asymmetric cyanine dye that is excluded from viable cells but preferentially stains the dead cell's DNA. […] Viable cells produce no appreciable increases in fluorescence. Therefore, the fluorescence signal produced by the binding interaction with dead cell DNA is proportional to cytotoxicity.
The mixture of HepG2 cell suspension and reagents were dispensed at 600cells/6 ul/well in 1536-well tissue culture treated black solid bottom plates using a Multidrop dispenser. After the assay plates were incubated at a 37 C/5% CO2 incubator for 5 hours, 23 nL of compounds dissolved in DMSO, positive and negative controls was transferred to the assay plate by a pintool work station. The plates were incubated at 37 C for 40 hours. The fluorescence intensity were measured at 0h, 8h, 16h, 24h, 32h and 40h time points using ViewLux plate reader during compound treatment.
% is set by controls: 0 for no effect and ±100 for the full control effect; potency is the fitted concentration of half-maximal effect; tags give direction and shape of the fitted curve.

| Structure (SMILES) | Potency |
| --- | --- |
| CCCOc1sc(C(=O)N2CCC(c3cc(CN)ccc3F)CC2)c(C)c1Br | active: 17.9 µM |
| CN1CCN(CCCN2c3ccccc3Sc3ccc(C(F)(F)F)cc32)CC1 | active: 21.3 µM |
| Oc1ccc(C2(c3ccc(O)cc3)CC3CC2C2CCCC32)cc1 (stereo not given) | inconclusive: 59.2 µM [activator, single point] |
| O=C1CCCCCCCCCCCCCC1 | inconclusive: 54.9 µM [activator, single point] |
| CN(C)CCN(Cc1cccs1)c1ccccn1 | inactive |
| COC(=O)[C@]1(C)CCC[C@@]2(C)[C@H]1CC=C1C=C(C(C)C)CC[C@@H]12 | active: 24.5 µM |
| CC[C@]1(O)C[C@H]2CN(CCc3c([nH]c4ccccc34)[C@@](C(=O)OC)(c3cc4c(cc3OC)N(C=O)[C@H]3[C@@](O)(C(=O)OC)[C@H](OC(C)=O)[C@]5(CC)C=CCN6CC[C@]43[C@@H]65)C2)C1 | inconclusive: 0.0048 µM [activator, full curve, poor fit] |
| c1ccc(Sc2ccccc2)cc1 | inconclusive: 54.9 µM [activator, partial curve, poor fit] |
| CCCCCCCOC(=O)c1ccc(O)cc1 | inconclusive: 55 µM [activator, single point] |
| Oc1ccc(Cl)cc1Cc1cc(Cl)ccc1O | inconclusive: 55.9 µM [activator, single point] and inconclusive: 54.9 µM [activator, single point] and inactive |
| Clc1ccc(C(c2ccccc2Cl)C(Cl)Cl)cc1 (stereo not given) | inconclusive: 54.9 µM [activator, single point] |
| CC(C)(C)CC(C)(C)c1ccc(O)c(Cc2ccc(Cl)cc2Cl)c1 | inconclusive: 26.8 µM [activator, single point] |
| Cc1cc2c(C(C)C)c(O)c(O)c(C=O)c2c(O)c1-c1c(C)cc2c(C(C)C)c(O)c(O)c(C=O)c2c1O | inconclusive: 26.8 µM [activator, single point] |
| O=C(COc1ccc(Cl)cc1)N1CCN(Cc2ccc3c(c2)OCO3)CC1 | inactive |
| COc1cccc(-c2ccc(/C=C\CN3CCCCCC3)cc2Cl)c1 | active: 38.7 µM |
| Oc1c(Cl)cc(Cl)c(Cl)c1Cc1c(O)c(Cl)cc(Cl)c1Cl | inconclusive: 26.8 µM [activator, single point] |
| COc1ccc(CCN2CCC(Nc3nc4ccccc4n3Cc3ccc(F)cc3)CC2)cc1 | active: 19.9 µM and active: 9.52 µM |
| CCc1cc(Cc2cc(CC)cc(C(C)(C)C)c2O)c(O)c(C(C)(C)C)c1 | inconclusive: 54.9 µM [activator, single point] |
| CCCCCCCCCCCCCCCCC(C(=O)O)C(O)(CC(=O)O)C(=O)O (stereo not given) | inconclusive: 26.8 µM [activator, single point] |
| O=C(NO)c1ccccc1 | inconclusive: 52.3 µM [activator, single point] |

| Structure (SMILES) | Potency |
| --- | --- |
| CSc1c(Cl)c(Cl)c(Cl)c(Cl)c1Cl | inconclusive: 54.6 µM [activator, single point] |
| O=C1Cc2cc(CCN3CCN(c4nsc5ccccc45)CC3)c(Cl)cc2N1 | inconclusive: 26.8 µM [activator, single point] |
| O=c1n(CC2CO2)c(=O)n(CC2CO2)c(=O)n1CC1CO1 (stereo not given) | inconclusive: 61.6 µM [activator, partial curve, poor fit] |
| CCCCOCCOCCOCCO | inactive |
| O=C1C=CC(=O)N1c1ccccc1 | active: 13.8 µM |
| Cc1oc(-c2ccccc2)nc1CCOc1ccc(C[C@H](Nc2ccccc2C(=O)c2ccccc2)C(=O)O)cc1 | inconclusive: 54.9 µM [activator, single point] |
| CCOc1nc2cccc(C(=O)OC(C)OC(=O)OC3CCCCC3)c2n1Cc1ccc(-c2ccccc2-c2nn[nH]n2)cc1 (stereo not given) | active: 43.6 µM |
| Oc1ccc(-c2ccccc2)c(Cl)c1 | active: 49 µM |
| CC(=O)c1ccc(S(=O)(=O)NC(=O)NC2CCCCC2)cc1 | inactive |
| COc1cc([C@@H]2c3cc4c(cc3[C@@H](O[C@@H]3O[C@@H]5CO[C@@H](C)O[C@H]5[C@H](O)[C@H]3O)[C@H]3COC(=O)[C@H]23)OCO4)cc(OC)c1O | active: 48.4 µM |
| CN[C@H]1CC[C@@H](c2ccc(Cl)c(Cl)c2)c2ccc(S(N)(=O)=O)cc21 | active: 13.8 µM |
| O=C(Nc1ccc(Cl)cc1)Nc1ccc(Cl)c(C(F)(F)F)c1 | active: 19 µM |
| CCCC(c1cc(C(C)(C)C)c(O)cc1C)c1cc(C(C)(C)C)c(O)cc1C | active: 35.1 µM |
| C[C@@H](NCCCc1cccc(C(F)(F)F)c1)c1cccc2ccccc12 | active: 15.1 µM |
| Cc1ccc(O)c2ncccc12 | active: 8.49 µM |
| C=C(c1ccc(C(=O)O)cc1)c1cc2c(cc1C)C(C)(C)CCC2(C)C | active: 43.6 µM and inconclusive: 26.8 µM [activator, single point] |
| Cc1cc(F)ccc1-c1cc(N2CC[C@@H](O)[C@H]2CO)ncc1N(C)C(=O)C(C)(C)c1cc(C(F)(F)F)cc(C(F)(F)F)c1 | active: 43 µM |
| CC/C(=C(\c1ccccc1)c1ccc(OCCN(C)C)cc1)c1ccccc1 | active: 43.6 µM [middle of 5 runs] |
| CC(C)=CCNc1ncnc2c1ncn2[C@@H]1O[C@H](CO)[C@@H](O)[C@H]1O | inconclusive: 26.8 µM [activator, single point] |
| Clc1ccc2c(c1)C(N1CCNCC1)=Nc1ccccc1O2 | active: 49 µM and active: 26.8 µM |
